Out of some 46,000 compounds screened, about 60 (0.1%) were called active. Not shown: some 3% with an inconclusive outcome. Calls follow the shape of the dose curve; as a rule, active = well fitted inhibition curve with a large enough effect; inconclusive = small, poorly fitted or top-dose-only effect; inactive = no such curve, though single readings can be large or run the other way. This is one part of the list.

This test can be described thus: Primary qHTS assay for Inhibitors of ovarian cancer metastasis using an organotypic tumor microenvironment (TME) model. Also: nearly all actives have a fitted effect of over 65% in size.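 As to activity change, negative = inhibition: plate controls were DMSO wells for no effect and tomatine positive control wells for full effect.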 The note with it: SKOV3ip1-GFP adhesion/invasion on 3D omental model, fluorescence; series mostly up to 45.8 µM; activity change, negative = inhibition: at the top concentration. In short, it runs like this:
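Adhesion/invasion was scored as fixed GFP-labeled SKOV3ip1 cell counts (488/509 nm), normalized to DMSO and tomatine controls. Cancer cells in serum-free medium, with four compound doses (0.36-46 umol/L), sat 2 hr at RT then 16 hr at 37 C on a 48 hr fibroblast/mesothelial/ECM culture.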
In general terms: qHTS replaces the single test concentration by a dilution series.
As for `O=C(CSc1nc(=O)[nH]c2c1CCC2)NCc1ccc(F)cc1`, the “activity change, negative = inhibition” value was inactive: 3.35%. For `CCCCCn1c(CCCNC(=O)c2ccccc2OC)nc2ccccc21`, the call was inactive.

Consider `O=C(NCc1ccccc1Cl)C1=Cc2cc(Br)ccc2OC1`, for which the “activity change, negative = inhibition” value was inactive: -1.76%. As to `CC1=C(C(N)=O)C(c2ccc(C)cc2)n2nc(SCc3ccccc3)nc2N1` (configuration not stated), the “activity change, negative = inhibition” value was inactive: -20.7%. On to `COc1ccc(S(=O)(=O)Nc2cccc(-c3ccc(N4CCCC4)nn3)c2)cc1F`, for which the “activity change, negative = inhibition” value was inactive: -14%. Same read-out and setting: in the case of `Cc1ccccc1NC(=O)CSc1ccc(-c2ccccn2)nn1` it was inactive: -2.06%; in that of `CCN1CCN(CCCNC(=O)Cn2nc(C)n3c(cc4c(OC)cccc43)c2=O)CC1`, inactive: 2.47%; in that of `COc1ccccc1-c1nn(CCC(=O)Nc2ccc(C)cc2)c2nc(C)cc(C)c12`, inactive: -4.18%.

Regarding `CC(=O)Nc1cccc(-c2nnc(SCC(=O)c3cc([N+](=O)[O-])ccc3Cl)o2)c1`, the “activity change, negative = inhibition” value is inactive: 8.01%.

`CCOC(=O)c1cnc2ccc(C(=O)OC)cc2c1Nc1ccc(OCc2ccccc2Cl)cc1`: the result was inactive.

With `COc1cccc(N2CCN(C(=O)c3ccc4nc(N5CCC(C)CC5)sc4c3)CC2)c1`, the “activity change, negative = inhibition” value was inactive: -25.6%. The same measure, in the same setting: in the case of `CCN(CC)C(=O)Cn1ncc2c([nH]c3ccccc32)c1=O` it was inactive: 6.46%. Still for that read-out and setting: in the case of `CCOc1ccc(NC(=O)CC2C(=O)N(c3ccc(OC)cc3)C(=O)N2CCC2=CCCCC2)cc1` (configuration not stated) it was inactive: -13.7%.

As for `O=C(NCC(c1ccc2c(c1)OCO2)N1CCN(c2ccccc2)CC1)C(=O)Nc1ccccc1F` (configuration not stated), the “activity change, negative = inhibition” value is inactive: -10.4%. The same measure, in the same setting: to `Cc1oc2c(c1C(=O)NCc1ccccc1F)C1=NCCN1C=N2` belongs inactive: 4.97%. The same measure, in the same setting: to `CC(C)Oc1ccc(CNC(=O)c2cnc3sc(N4CCCC4)nn3c2=O)cc1` belongs inactive: -7.12%. Still for that read-out and setting: to `CCOC(=O)NNC(=O)C1CCC(C)CC1` (configuration not stated) belongs inactive: 12.1%; to `Cc1ccc(N2CCN(c3nc4ccc(C(=O)c5ccccc5)cc4n4cnnc34)CC2)c(C)c1`, inactive: -29.5%. Turning to `COc1ccc(C(C)=O)cc1CSc1nc(Nc2ccc(F)c(F)c2)c2ccccc2n1`, the “activity change, negative = inhibition” value was inactive: 0.457%. Turning to `Cc1ccc(-c2nnc3ccccc3c2C(=O)Nc2ccc(F)cc2)cc1`, the “activity change, negative = inhibition” value was inactive: -4.61%. `O=C(O)c1cc(-c2ccccc2)nn1Cc1ccccc1`: the compound was called inactive. The same measure, in the same setting: to `COc1ccc(C)cc1NC(=O)N(C(C)C)C1CCN(C(C)=O)CC1` belongs “inactive”. For the compound `Cc1ccc([C@@H]2O[C@H](CO)[C@@H](O)[C@H](O)[C@@H]2O)cc1Cc1ccc(-c2ccc(F)cc2)s1`, the “activity change, negative = inhibition” value is inactive: 5.58%.

Consider `CC(=O)Nc1ccc(NC(=O)c2ccc3c(c2)CCN3S(=O)(=O)c2ccc(C)cc2)cc1`, for which the “activity change, negative = inhibition” value was inactive: -0.912%. Still for that read-out and setting: to `Cc1ccn2c(Nc3ccccc3)c(-c3c[nH]c4ccccc34)nc2c1` belongs inactive: -5.96%; to `Cc1cc(C)cc(NC(=O)C(=O)NCCc2sc(-c3cccc(F)c3)nc2C)c1`, inactive: 0.926%. Same read-out and setting: to `Cc1ccc(-c2nnc(Nc3ccc(OCC(N)=O)cc3)c3ccccc23)cc1S(=O)(=O)NCC1CCCO1` (configuration not stated) belongs inactive: 0.82%; to `O=C(CCn1cnc2onc(-c3ccc(F)cc3)c2c1=O)Nc1cccc(C(F)(F)F)c1`, inactive: 0.159%. The same measure, in the same setting: in the case of `CCOC(=O)c1[nH]c2ccccc2c1NC(=O)c1ccc(C)c(C)c1` it was inactive: -3.38%. Consider `Cc1noc(Cn2c(=O)c3ccccc3n(CC(=O)Nc3cc(Cl)ccc3C)c2=O)n1`, for which the call was inactive.

`O=C(CSc1n[nH]c(-c2ccccc2)n1)N1CCN(c2ccc(F)cc2)CC1`: the “activity change, negative = inhibition” value is inactive: 7.92%. On to `COCC(=O)NCC=Cc1ccc2ncnc(Nc3ccc(Oc4ccc(C)nc4)c(C)c3)c2c1`, for which the “activity change, negative = inhibition” value was inactive: -1.56%. For `Cc1ccc(C)c(N2CCN(CCCNC(=O)c3cnn(-c4cccc(Cl)c4)c3C3CCN(C(=O)OC(C)(C)C)CC3)CC2)c1`, the result was inactive. The same measure, in the same setting: to `Cc1cc(C)cc(NC(=O)C(C)N2Cc3ccccc3C2=O)c1` (configuration not stated) belongs “inactive”. Take `Cc1ccc(CSc2nc3ccccc3c3nc(CCn4c(C)nc5ccccc54)nn23)cc1`: the “activity change, negative = inhibition” value was inactive: 5.22%. The same measure, in the same setting: in the case of `CCc1ccccc1NC(=O)CCn1cccn1` it was inactive: -5.41%; in that of `Cc1ccc(CNC(=O)C2CCN(C(=O)N3CC(C)Oc4ccc(Cl)cc43)CC2)cc1` (configuration not stated), inactive: 36.5%; in that of `CCC(C(=O)NCCc1ccc(OC)c(OC)c1OC)n1nc(C)c2sc3ccccc3c2c1=O` (configuration not stated), inactive: 0.0292%. Still for that read-out and setting: to `Cc1ccc(-n2c(=O)c3c(cnn3C)n(CC(=O)Nc3cccc(Cl)c3)c2=O)cc1` belongs inactive: 5.02%; to `CCOc1ccccc1NC(=O)CN1C(=O)CC(c2ccc(C)c(C)c2)=Nc2ccccc21`, inactive: -4.14%. For the compound `CC(C)Oc1ccc(CNC(=O)C(C)n2ccc3cc(S(=O)(=O)N4CCCCCC4)ccc32)cc1` (configuration not stated), the “activity change, negative = inhibition” value is inactive: -3.18%. `CCc1ccc(CNC(=O)CN2C(=O)C3CCCCN3c3ccc(C(=O)N4CCCC4)cc32)cc1` (configuration not stated): the “activity change, negative = inhibition” value is inactive: -10.2%.

As for `CC1CCN(S(=O)(=O)c2ccc3c(c2)N(C)C(=O)CC(=O)N3C)CC1`, the “activity change, negative = inhibition” value is inactive: 0.504%. Still for that read-out and setting: to `CCCNC(=O)CN1C(=O)COc2ccc(S(=O)(=O)N3CCCCCC3)cc21` belongs inactive: 8%. Turning to `O=C(NCc1cccc(Br)c1)C1CCCCN1S(=O)(=O)c1ccc(F)cc1` (configuration not stated), the compound was called inactive. As to `Cc1ccc(-c2nnc(SCc3ccccc3)o2)cc1`, the “activity change, negative = inhibition” value was inactive: -9.91%. Still for that read-out and setting: in the case of `COc1cccc(NC(=O)C(C)n2c(=O)cc(C(F)(F)F)c3c(C)nn(C)c32)c1` (configuration not stated) it was inactive: 7.89%.

On to `CCN(CC)C(=O)Cn1c(SCC(=O)Nc2ccc(F)cc2)nc2ccccc21`, for which the “activity change, negative = inhibition” value is inactive: -14.6%. On the same count and under the same terms, in the case of `COc1ccc(OCc2nc3ccccc3n2Cc2ccc(C(C)(C)C)cc2)cc1` it was inactive: 5.65%. For the compound `COc1ccccc1NC(=O)c1cc2c(-c3ccccc3)nn(-c3ccccc3)c2s1`, the outcome was inactive. Turning to `CCOc1ccccc1NC(=O)Cn1c(=O)nc(-c2ccccc2F)c2cc(Cl)ccc21`, the “activity change, negative = inhibition” value is inactive: -1.18%. The same measure, in the same setting: in the case of `CCc1ccccc1NC(=O)Cn1c(=O)n(C(C)C)c(=O)c2oc3ccccc3c21` it was inactive: -2.12%; in that of `CCOc1ccccc1C(=O)NCc1ccc2c(c1)CCN2C(=O)c1ccc(F)cc1`, inactive: -1.62%. Same read-out and setting: to `Cc1ccc(N(Cc2cccs2)C(=O)c2ccc(OC(C)C)cc2)cc1` belongs inactive: -1.62%; to `COc1cccc(OCCSc2nc3ccccc3n2CC(=O)N2CCOCC2)c1`, inactive: 5.1%. Same read-out and setting: in the case of `COc1ccc2c(CNC3CCC(C)CC3)c(C(=O)O)n(Cc3ccc(F)cc3)c2c1` (configuration not stated) it was inactive: -2.91%; in that of `COCCNC(=O)c1ccc(Cn2c(SCC(N)=O)nc3ccccc3c2=O)cc1`, inactive: -6.57%. As for `Cc1cc(=O)n2nc(N3CCC(C(=O)Nc4ccc(Br)c(C)c4)CC3)sc2n1`, the result was inactive. Regarding `CCOC(=O)c1cnc2c(ccc3ccccc32)c1Nc1ccccc1O`, the “activity change, negative = inhibition” value was inactive: -0.239%.

Regarding `CCOC(=O)c1cccc(NC(=O)COc2ccc3c(C)cc(=O)oc3c2)c1`, the compound was called inactive.

Take `COc1cc2nc(NCCc3cccc(C)c3)n3nc(-c4ccccc4)nc3c2cc1OC`: the “activity change, negative = inhibition” value is inactive: -0.75%. The same measure, in the same setting: in the case of `COc1ccc(C2CC(=O)Nc3c2c(C)nn3-c2nncc(-c3ccccc3)n2)c(OC)c1OC` (configuration not stated) it was inactive: 2.55%.

For the origin of these results see PubChem BioAssay AID1963576 (National Center for Advancing Translational Sciences (NCATS), 2024).
